The structures appear in SMILES notation.

Assay [1] has as its system A549. Put plainly: Antiproliferative activity against human A549 cells incubated for 7 days with compound replacement on day 4 by cell titer glo-based luminescence assay. Type of assay: functional.
Assay [2] deals with A549. Put plainly: Antiproliferative activity against human A549 cells. The assay is classed as functional, cell-based.
The subject of the next assay is A-375. The experiment in a line: Antiproliferative activity against human A375 cells measured after 7 days by cell titer glo-based luminescence assay. Type of assay: functional. The conditions noted are these: A-375, 168 h. For orientation: Cellular ATP, detected with luciferase, serves as a proxy for viable cell number.
Assay [3] has as its target T1, Protein arginine N-methyltransferase 5 (Homo sapiens, UniProt O14744). Put plainly: Inhibition of PRMT5 (unknown origin).
Assay [4] deals with T1, Protein arginine N-methyltransferase 5. The experiment in a line: Inhibition of PRMT5 in human A549 cells assessed as reduction in sDMA production after 48 hrs by Hoechst Stain/HCS CellMask Deep Red Stain based immunohistochemistry method. Type of assay: cell-based.
The target of assay [5] is T2, PRMT5/MEP50 complex (Homo sapiens, UniProt O14744). Put plainly: Inhibition of full-length human N-terminal FLAG-tagged PRMT5/full length N-terminal His6-tagged MEP50 (unknown origin) expressed in baculovirus infected Sf9 insect cells assessed as reduction of S-adenosyl-L-homocysteine formation using human recombinant histone H2A (1 to 130 residues) as substrate after 1 hr in the presence of S-adenosyl-L-methionine by high throughput mass spectrometry.

The target in assay [6] is T1, Protein arginine N-methyltransferase 5. Put plainly: Inhibition of PRMT5 (unknown origin) assessed as reduction in SAH formation using histone H2A and SAM incubated for 60 mins by high throughput mass spectrometry.
The target is the same in assay [7]. Put plainly: Inhibition of PRMT5 in human A549 cells assessed as reduction in sDMA production incubated for 48 hrs by immunohistochemistry analysis. The assay is classed as cell-based.
Assay [8] deals with T2, PRMT5/MEP50 complex. The experiment in a line: Inhibition of PRMT5 (unknown origin)/MEP50 (unknown origin) using histone H2 as substrate preincubated for 15 to 20 mins followed by S-[methyl-3H]adenosyl-L-methionine addition measured after 60 mins by liquid scintillation counting. Type of assay: protein-complex assay.
Another assay concerns Granta-519. Put plainly: Antiproliferative activity against human GRANTA-519 cells incubated for 3 days and measured upto 10 days by CCK-8 assay. The assay is classed as functional, cell-based. In general terms: Tetrazolium dyes change colour on reduction, which living cells bring about.
The subject of another assay is Z-138. The experiment in a line: Antiproliferative activity against human Z138 cells. The assay is classed as functional, cell-based.
In assay [9] the target is T1, Protein arginine N-methyltransferase 5. The experiment in a line: Inhibition of PRMT5 in human Granta-519 assessed as reduction in sDMA production after 3 days by Western blotting analysis. Type of assay: cell-based.
Assay [10] concerns the target T2, PRMT5/MEP50 complex. The experiment in a line: Inhibition of PRMT5 (unknown origin)/MEP50 (unknown origin) using [3H]-SAM and histone H2A incubated for 60 mins by scintillation counting analysis. The assay is classed as protein-complex assay.

The term IC50 denotes the concentration needed to halve the response being measured. Consider `Nc1ncnc2c1ncn2[C@@H]1O[C@H]([C@H](O)c2ccc(F)c(F)c2)[C@@H](O)[C@H]1O`, for which, in the assay with A549 [1], the IC50 was 48 nM. Regarding `Cc1ncnc2c1ccn2[C@@H]1C[C@H](Oc2cc(C(F)F)c(F)c3c2CNCC3C)[C@@H](O)[C@H]1O` (stereo in doubt; 39), 2 nM corresponded to half-maximal inhibition with A549 [2] (a549) (IC50).

For the compound `Cc1ncnc2c1ccn2[C@@H]1O[C@H]([C@H](O)c2ccc(F)c(F)c2)[C@@H](O)[C@H]1O`, the IC50 in the assay with A549 [1] was 16 nM. Turning to `Nc1ncnc2c1ccn2[C@@H]1O[C@H]([C@H](O)c2ccc(Cl)cc2)[C@@H](O)[C@H]1O`, the figures for the half-maximal inhibitory concentration (IC50) in the assay with A549 [1] and with A-375 were 5 nM and 11 nM, respectively. `Cc1ncnc2c1ccn2[C@@H]1C[C@H](Oc2cc(C(F)F)c(F)c3c2CNCC3C)[C@@H](O)[C@H]1O` (stereo in doubt; 38): the figures for the IC50 (in assay [3]; with A549 [2] (a549)) were 1 nM and 14 nM, respectively. Turning to `Cc1ncnc2c1ccn2[C@@H]1C[C@H](Oc2cc(C(F)F)cc3c2CNCC3)[C@@H](O)[C@H]1O`, half-maximal inhibition in the assay with A549 [2] (Homo sapiens, A549) (IC50) was put at 2 nM. Consider `Nc1ncnc2c1ccn2[C@@H]1O[C@H](COc2ccc3cccnc3c2)[C@@H](O)[C@H]1O`, for which the IC50 in assay [4] came out at 79.4 nM; at PRMT5/MEP50 complex [5] it was 15.8 nM. Turning to `Nc1ncnc2c1ccn2[C@@H]1O[C@H](CN2CC(F)(F)CC23CCNCC3)[C@@H](O)[C@H]1O`, the IC50 in assay [6] came out at 8.7 nM; in assay [7], 51 nM. For the compound `Nc1ncnc2c1ccn2[C@@H]1C[C@H](CCc2ccc3cccnc3c2)[C@@H](O)[C@H]1O`, the concentration for half-maximal inhibition (IC50) in assay [4] came out at 7.9 nM. `C#Cc1nn([C@@H]2O[C@H]([C@H](O)c3ccc(Cl)cc3)[C@@H](O)[C@H]2O)c2ncnc(N)c12` registered an IC50 at PRMT5/MEP50 complex [8] of 116 nM. Consider `Cc1nc2cc(CC[C@H]3C[C@@H](n4ccc5c(N)ncnc54)[C@H](O)[C@@H]3O)ccn2c1C`, for which the IC50 was 3.98 nM in [4] and under 0.2 nM at PRMT5/MEP50 complex [5].

`Nc1ccc2ccc(CC[C@H]3C[C@@H](n4ccc5c(N)ncnc54)[C@H](O)[C@@H]3O)cc2n1`: the values for the half-maximal inhibitory concentration (IC50) (in assay [4]; on PRMT5/MEP50 complex [5]) were 0.16 nM and 0.25 nM, respectively. As to `Nc1ncnc2c1ccn2[C@@H]1C[C@H](CCc2ccc3ccc(NCC4CC4)nc3c2)[C@@H](O)[C@H]1O`, the IC50 in assay [4] amounted to 0.4 nM; on PRMT5/MEP50 complex [5] it was 0.79 nM. Take `Nc1ncnc2c1c(F)cn2[C@@H]1O[C@H]([C@H](O)c2ccc(F)c(F)c2)[C@@H](O)[C@H]1O`: in the assay with A549 [1], the IC50 was determined as 10 nM. For the compound `Nc1ncnc2c1ccn2[C@@H]1O[C@H]([C@H](O)c2ccc(F)c(F)c2)[C@@H](O)[C@H]1O`, the IC50 with A549 [1] is 6 nM. `Nc1ncnc2c1ccn2[C@@H]1C[C@H](OCc2ccc3cccnc3c2)[C@@H](O)[C@H]1O`: the IC50 in assay [4] worked out at 1070 nM. Regarding `N/N=c1\nc[nH]c2c1ccn2[C@@H]1O[C@H]([C@H](O)c2ccc(Cl)cc2)[C@@H](O)[C@H]1O`, the IC50 in the assay with Granta-519 was 98 nM. For the compound `Cc1ncnc2c1ccn2[C@@H]1C[C@H](Oc2cc(OC(F)F)c(F)c3c2CNCC3)[C@@H](O)[C@H]1O`, the IC50 in assay [3] worked out at 1 nM; in the assay on A549 [2] (Homo sapiens, A549), 140 nM. Take `Nc1ncnc2c1ccn2[C@@H]1C[C@H](/C=C/c2ccc3cccnc3c2)[C@@H](O)[C@H]1O`: in assay [4], the IC50 is 51.3 nM. For `Nc1ncnc2c1ccn2[C@@H]1O[C@H]([C@H](O)c2ccc(Cl)c(F)c2)[C@@H](O)[C@H]1O`, in the assay on Z-138, half-maximal inhibition (IC50) was put at 1.4 nM.

For the compound `Nc1ncnc2c1ccn2[C@@H]1C[C@H]([C@H](O)c2ccc(F)c(F)c2)[C@@H](O)[C@H]1O`, the IC50 was determined as 134 nM in assay [9] and 2 nM at PRMT5/MEP50 complex [8]. Regarding `Nc1ncnc2c1ccn2[C@@H]1O[C@H]([C@H](O)c2ccccc2)[C@@H](O)[C@H]1O`, in the assay with A-375, inhibition was half-maximal at 32 nM (IC50).

With `Cc1cnc2cc(CC[C@H]3C[C@@H](n4ccc5c(N)ncnc54)[C@H](O)[C@@H]3O)c(Cl)cn12`, the IC50 in [4] stood at 6.31 nM. With `C=CC(=O)Nc1ncnc2c1ncn2[C@@H]1O[C@H](CSC)[C@@H](O)[C@H]1O`, the IC50 on PRMT5/MEP50 complex [10] worked out at 5.01 µM. For `Cc1cnc2cc(CC[C@H]3C[C@@H](n4ccc5c(N)ncnc54)[C@H](O)[C@@H]3O)c(F)cn12`, the results for the IC50 (in assay [4]; on PRMT5/MEP50 complex [5]) were 2 nM and 0.32 nM, respectively.

Consider `Nc1ccc(CC[C@H]2C[C@@H](n3ccc4c(N)ncnc43)[C@H](O)[C@@H]2O)cn1`, for which the IC50 in assay [4] came out at 6.31 nM. For the compound `Nc1ncnc2c1ccn2[C@@H]1C[C@H](Sc2ccc(Cl)cc2)[C@@H](O)[C@H]1O`, the IC50 in [9] turned out to be 63 nM; on PRMT5/MEP50 complex [8] it was 26 nM. Regarding `Cc1ncnc2c1ccn2[C@@H]1O[C@H]([C@H](O)c2cccc3c2CNCC3)[C@@H](O)[C@H]1O`, in the assay on A549 [2] (Homo sapiens, A549), half-maximal inhibition (IC50) required 350 nM. `Nc1ncnc2c1ccn2[C@@H]1O[C@H](CN2CCCC23CCNCC3)[C@@H](O)[C@H]1O`: the IC50 came to 22 nM in assay [6] and 81 nM in assay [7]. In the case of `C=C(C)C(=O)Nc1ncnc2c1ncn2[C@@H]1O[C@H](CSC)[C@@H](O)[C@H]1O`, the concentration for half-maximal inhibition (IC50) against PRMT5/MEP50 complex [10] is 2.38 µM. Regarding `Nc1ncnc2c1ccn2[C@@H]1C[C@H](COc2ccc3cccnc3c2)[C@@H](O)[C@H]1O`, the IC50 in [4] is 125 nM; on PRMT5/MEP50 complex [5], 20 nM. As for `Cc1cnc2cc(CC[C@H]3C[C@@H](n4ccc5c(N)ncnc54)[C@H](O)[C@@H]3O)ccn12`, the IC50 in [4] is 1.26 nM. As to `C#Cc1cn([C@@H]2O[C@H]([C@H](O)c3ccc(Cl)cc3)[C@@H](O)[C@H]2O)c2ncnc(N)c12`, the results for the IC50 with Granta-519 and against PRMT5/MEP50 complex [8] were 131 nM and 17 nM, respectively.

The record behind these values is ChEMBL document CHEMBL4390690, “Nucleoside protein arginine methyltransferase 5 (PRMT5) inhibitors” (Bioorg Med Chem Lett, 2019).
